“And” between values parts separate entries of the source, which are not always exact repeats. Equal values may be shown once.
Columns and labels:
C-33 A cells = assay: Cytotoxicity concurrent with HPV11 primary assay; format: cell-based
Description: (§1) An HPV11 replicon assay was developed and expresses the essential E1 and E2 proteins from the native promoter. The E2 origin binding protein interacts with the virus origin of replication and recruits the E1 replicative helicase which unwinds the DNA and helps to recruit the cellular DNA replication machinery (including DNA polymerases, type I and type II topoisomerases, DNA ligase, single-stranded DNA binding proteins, proliferating cell nuclear antigen). The replication complex then drives the amplification of the replicon which can be assessed by the expression of a destabilized NanoLuc reporter gene carried on the replicon. In this assay, the replicon (pMP619) is transfected into C-33 A cells grown as monolayers in 384-well plates. At 48 h post transfection, the enzymatic activity of the destabilized NanoLuc reporter is assessed with NanoGlo reagent. […] . Beadle et al., 2016.

[1] = test system: Epstein-Barr virus Akata strain; assay: Epstein-Barr primary assay, Akata strain, Akata cells; format: cell-based; details: human gammaherpesvirus 4
[2] = Cytotoxicity concurrent with Adenovirus primary assay; format: cell-based, human; details: human
[3] = test system: VZV strain 15-6-001 resistant isolate; assay: microbe, parasite or virus in culture; format: cell-based, Varicella Zoster Virus; details: Human alphaherpesvirus 3, HFF
Method: (§2) Assays were performed in monolayers as described. […] Toxicity was measured using CTG as above. […] Toxicity was measured using CTG as above.
(§3) Monolayers of HFF cells were prepared in six-well plates and incubated at 37° C. for 2 d to allow the cells to reach confluency. Media was then aspirated from the wells and 0.2 mL of virus-containing solution was added to each of three wells to yield 20-30 plaques in each well. The virus was allowed to adsorb to the cells for 1 h and the plates were agitated every 15 minutes. Compounds were diluted in assay media consisting of MEM with Earl's salts supplemented with 2% FBS, glutamine, penicillin, and gentamycin. Diluted drug was added to duplicate wells and the plates were incubated for various times, depending on the virus used. For HSV-1 and -2, the monolayers were then stained with 1% crystal violet in 20% methanol and the unbound dye removed by washing with dH20. For all other assays, the cell monolayer was stained with 1% Neutral Red solution for 4-6 h then the stain was aspirated and the cells were washed with PBS.

[4] = test system: Human herpes virus 8 strain BCBL-1; assay: Human herpes virus 8 primary assay, BCBL-1 cells; format: cell-based, Human Herpesvirus 8; details: Human gammaherpesvirus 8, BCBL1, strain BCBL-1, BCBL-1 cells
[5] = Cytotoxicity concurrent with EBV primary assay; details: human
[6] = Cytotoxicity concurrent with HCMV secondary assay; format: cell-based; details: human, HFF cells
Method: (§4) Monolayers of HFF cells were prepared in 96-well plates and incubated at 37° C. for 1 d to allow the cells to reach confluency. Media was then aspirated from the wells and cells infected at a high MOI. At 1 h following infection, the inocula were removed and the monolayers rinsed with fresh media. […] Drug dilutions were added to the wells and the plates were incubated for various times, depending on the virus used and represents a single replication cycle for the virus. A duplicate set of dilutions were also performed but remained uninfected to serve as a cytotoxicity control and received equal compound exposure. Supernatants from each of the infected wells were subsequently titered using CTG in a TCID50 assay to quantify the progeny virus. For HCMV only, viral yield in the supernatants from the infected cells were titered using qPCR with HCMV primers [NT], and probe [NT].

in vitro [7] = format: cell-based; details: human
Method: as §2

[8] = Cytotoxicity concurrent with HHV-6B primary assay; format: cell-based; details: human
[9] = Cytotoxicity concurrent with HHV-8 primary assay; format: cell-based; details: human
[10] = Cytotoxicity concurrent with VZV 15-6-001 primary assay; format: cell-based; details: human
Method: as §2

[11] = test system: Adenovirus Adenoid75 strain; assay: Adenovirus secondary assay (yield reduction), Adenoid75 strain, HFF cells; format: cell-based; details: unidentified adenovirus, Adeno secondary assay
Method: as §4

HCMV strain AD169 = assay: HCMV secondary assay (yield reduction), strain AD169, HFF cells; format: cell-based, Human Cytomegalovirus; details: Human betaherpesvirus 5, virus strain AD169, HFF cells
Method: as §4

[12] = test system: HCMV strain GDGr K17 - resistant isolate; assay: HCMV primary assay, resistant isolate GDGr K17, HFF cells; format: cell-based, Human Cytomegalovirus; details: Human betaherpesvirus 5, HFF
Method: as §2

[13] = test system: Human herpes virus 6B strain Z29; assay: Human herpes virus 6B primary assay, strain Z29, MOLT-3 cells; format: cell-based, Human Herpesvirus 6B; details: Human betaherpesvirus 6B
[14] = test system: Adenovirus Adenoid75 strain; assay: Adenovirus primary assay, Adenoid75 strain, HFF cells; format: cell-based; details: unidentified adenovirus
[15] = Cytotoxicity concurrent with Guinea pig CMV secondary assay; format: cell-based; details: GP lung cells
in vitro [16] = format: cell-based; details: guinea pig
[17] = test system: HSV1 strain DM.2 - resistant isolate; assay: HSV1 primary assay, resistant isolate DM.2, HFF cells; format: cell-based, Herpes Simplex Virus 1; details: Human alphaherpesvirus 1, HFF
Method: as §2, §3

[18] = Cytotoxicity concurrent with Adenovirus secondary assay; format: cell-based; details: human; Adeno secondary assay, HFF cells
Method: as §4

in vitro [19] = details: human, HFF cells
CDK9/cyclin T1 = CDK9/cyclin T1 (Homo sapiens (Human), UniProt P50750); assay: Kinase activity assay, CDK9/cyclin T1; format: biochemical; details: Table 3.1.1; 10 μM ATP; 10-dose duplicate, 3-fold serial dilution starting at 10 μM; read-out: Compound IC50 CDK9/cyclin T1
[20] = Cytotoxicity concurrent with HPV11 primary assay; format: cell-based; details: human, C-33 A cell monolayers, C-33 A cells
Description: as §1

CDK7/cyclin H = CDK7/cyclin H (Homo sapiens (Human), UniProt P50613); assay: Kinase activity assay, CDK7/cyclin H; format: biochemical; details: 10 μM ATP, 3-fold serial dilution starting at 10 μM, read-out: Compound IC50 CDK7/cyclin H
[21] = Cytotoxicity concurrent with HCMV AD169 primary assay; format: cell-based, human; details: human, CC50
[22] = Cytotoxicity concurrent with HSV2 primary assay; format: cell-based, human; details: human
Method: as §2

[23] = Cytotoxicity concurrent with VZV Ellen primary assay; format: cell-based, human; details: human
Method: as §2

[24] = Cytotoxicity concurrent with HSV1 E-377 primary assay; format: cell-based, human; details: human
Method: as §2

HSV1 strain E-377 = assay: HSV1 primary assay, strain E-377, HFF cells; format: cell-based, Herpes Simplex Virus 1; details: Human alphaherpesvirus 1
Method: as §2, §3

[25] = Akata cells without virus induction

UniProt P50750, sequence (P50750 whole entry): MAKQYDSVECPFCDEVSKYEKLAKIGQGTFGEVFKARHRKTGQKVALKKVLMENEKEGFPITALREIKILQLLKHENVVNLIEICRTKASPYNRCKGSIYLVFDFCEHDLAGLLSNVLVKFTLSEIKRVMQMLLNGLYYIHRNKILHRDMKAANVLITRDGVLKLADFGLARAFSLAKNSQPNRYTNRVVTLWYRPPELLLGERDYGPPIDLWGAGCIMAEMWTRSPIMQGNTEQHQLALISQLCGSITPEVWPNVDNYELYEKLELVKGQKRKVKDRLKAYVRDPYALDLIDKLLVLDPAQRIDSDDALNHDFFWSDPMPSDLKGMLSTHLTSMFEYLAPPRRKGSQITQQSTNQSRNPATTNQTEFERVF
UniProt P50750, sequence (O60563 whole entry partner): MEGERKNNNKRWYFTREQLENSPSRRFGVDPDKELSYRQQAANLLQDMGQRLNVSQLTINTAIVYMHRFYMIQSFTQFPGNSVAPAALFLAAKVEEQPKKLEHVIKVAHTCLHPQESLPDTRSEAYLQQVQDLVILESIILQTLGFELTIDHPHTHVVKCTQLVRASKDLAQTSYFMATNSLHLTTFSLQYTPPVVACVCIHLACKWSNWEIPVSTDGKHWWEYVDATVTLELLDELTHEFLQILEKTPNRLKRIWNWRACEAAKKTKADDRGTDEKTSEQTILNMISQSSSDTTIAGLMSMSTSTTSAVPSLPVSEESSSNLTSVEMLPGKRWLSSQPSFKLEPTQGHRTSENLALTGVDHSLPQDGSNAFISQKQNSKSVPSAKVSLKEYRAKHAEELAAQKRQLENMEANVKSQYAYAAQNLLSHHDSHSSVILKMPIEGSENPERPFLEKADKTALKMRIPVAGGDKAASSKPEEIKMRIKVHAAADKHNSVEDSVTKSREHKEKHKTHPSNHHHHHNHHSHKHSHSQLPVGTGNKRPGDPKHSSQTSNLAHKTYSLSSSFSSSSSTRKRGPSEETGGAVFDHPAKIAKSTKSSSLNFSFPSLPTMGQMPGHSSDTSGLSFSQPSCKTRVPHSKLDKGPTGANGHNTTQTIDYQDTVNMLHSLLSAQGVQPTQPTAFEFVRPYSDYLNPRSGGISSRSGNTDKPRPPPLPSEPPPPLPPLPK
UniProt P50613, sequence (P50613 whole entry): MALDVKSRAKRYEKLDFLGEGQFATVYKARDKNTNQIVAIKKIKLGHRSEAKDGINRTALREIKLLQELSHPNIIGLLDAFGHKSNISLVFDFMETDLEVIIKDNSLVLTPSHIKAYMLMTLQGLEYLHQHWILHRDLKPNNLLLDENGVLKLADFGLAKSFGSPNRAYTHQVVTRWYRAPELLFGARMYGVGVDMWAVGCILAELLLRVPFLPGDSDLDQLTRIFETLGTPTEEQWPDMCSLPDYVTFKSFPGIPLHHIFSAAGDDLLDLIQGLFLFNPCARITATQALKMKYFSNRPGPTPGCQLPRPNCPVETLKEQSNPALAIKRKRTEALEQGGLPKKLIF
UniProt P50613, sequence (P51946 whole entry partner): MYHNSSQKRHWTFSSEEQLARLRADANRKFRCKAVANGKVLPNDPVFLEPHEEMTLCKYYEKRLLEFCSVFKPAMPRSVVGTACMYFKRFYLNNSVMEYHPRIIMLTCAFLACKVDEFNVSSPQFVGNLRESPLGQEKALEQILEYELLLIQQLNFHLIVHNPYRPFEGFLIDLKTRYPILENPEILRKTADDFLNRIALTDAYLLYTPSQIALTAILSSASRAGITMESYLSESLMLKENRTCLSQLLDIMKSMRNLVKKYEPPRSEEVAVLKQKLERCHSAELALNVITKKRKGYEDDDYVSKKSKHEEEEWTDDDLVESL

Question: Which CC50 (C-33 A cells) does the source give for `Nc1nc2c(ncn2CCOCP(=O)(O)O)c(=O)[nH]1` [9-[2-phosohono-methoxy)ethyl]guanine, reference compound] here?
Answer: 39.4 µM

Question: Which results are given for `Nc1ccn(C[C@@H](CO)OCP(=O)(O)O)c(=O)n1` [Cidofovir, reference compound]?
Answer: EC50 [1]: 3310 nM; EC90 [1]: 74.2 µM; CC50 [2]: 150 µM; EC90 [3]: 30 µM; EC50 [4]: 3.22 µM; EC90 [4]: 15.8 µM; CC50 at 72 h ([5]; Akata cells): 100 µM; CC50 [6]: 20 µM; CC50 (in vitro [7]): 150 µM; CC50 at 7 d ([8]; MOLT-3 cells): 100 µM; CC50 ([9]; BCBL-1 cells): 100 µM; CC50 [10]: 115 µM; EC90 [11]: 3.27 µM; EC90 (HCMV strain AD169): 0.75 µM; EC50 [12]: 210 nM; EC90 [12]: 2990 nM; EC50 [13]: 8.45 µM; EC90 [13]: 27.7 µM; EC50 [14]: 4.91 µM; EC90 [14]: 150 µM; CC50 [15]: 100 µM; CC50 at 7 d (in vitro [16]): 150 µM; EC50 [17]: 1070 nM; EC90 [17]: 150 µM; CC50 [18]: 100 µM; CC50 (in vitro [19]): 139 µM

Question: Which results are given for `CN(C)C1CCC(Nc2cc3c4ccc(F)cc4nn3cn2)CC1` (stereo not drawn) [VKT-007]?
Answer: EC50 [1]: 1300 nM; EC90 [1]: 5.5 µM; IC50 (CDK9/cyclin T1): 110 nM and 152 nM; CC50 at 72 h [5, 25]: 20.3 µM; CC50 ([6]; uninfected HFF cell monolayers): 23.7 µM; CC50 at 7 d ([8]; Molt-3 cells without virus addition): 27.9 µM; CC50 ([9]; BCBL-1 cells without virus induction): 31.4 µM; CC50 [20]: 49.9 µM; EC90 (HCMV strain AD169): 9.91 µM; EC50 [13]: 5.32 µM; EC90 [13]: 9.88 µM; IC50 (CDK7/cyclin H): > 10 µM; CC50 [21]: 23.1 µM; CC50 [15]: 34.2 µM; CC50 at 7 d (in vitro [16]): 18.5 µM

Question: For `Fc1ccc2c(c1)nn1cnc(NC3CCCOC3)cc21` (stereo not drawn) [VKT-019], which CC50 [2] is on record?
Answer: 29.9 µM

Question: What about the CC50 at 72 h [5, 25] of the same compound?
Answer: 42.3 µM

Question: And the CC50 [22]?
Answer: 38.1 µM

Question: And the CC50 (in vitro [7])?
Answer: 48.5 µM

Question: What about the EC50 [14] of the same compound?
Answer: 6.02 µM

Question: And the CC50 [23]?
Answer: 28.4 µM

Question: And the CC50 [21]?
Answer: 32 µM

Question: And the CC50 [24]?
Answer: 41.9 µM

Question: What about the EC50 (HSV1 strain E-377) of the same compound?
Answer: 20 nM

— patent publication US20240309004A1, “SELECTIVE CYCLIN-DEPENDENT KINASE INHIBITORS AND METHODS OF THERAPEUTIC USE THEREOF” (ViroKyne Therapeutics, LLC, priority 2021, published 2024)
